The supplement of paper PMC3334620
Over roughly 33,000 sequences, “E-score (-0.5 to 0.5)” has its median near -0.054; the highest 2% begin near 0.39. The list shows a part of the results.

These sequences were tested against Ylr278c (UniProt Q05854) (assay: PBM E-score (8-mer binding enrichment) (E-score (-0.5 to 0.5)); higher = stronger / more preferred TF binding; most listed sequences are background and not binding sites). Conditions: protein concentration: 200 nM; construct: GST-DNA-binding domain.
In short: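 Universal all-10-mer Agilent arrays, double-stranded by primer extension on fresh or once-stripped slides, were probed with about 100-200 nM GST-tagged yeast transcription factors made by PURExpress. Fluorescent anti-GST detected bound protein, and masliner normalised the scans. E-scores from the Universal PBM Analysis Suite were given to each ungapped eight-base word pooled with its reverse complement.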

Sequence	PBM E-score
ATATGCAC	-0.0858
AGGTGGTC	-0.155
GTTACCCA	-0.158
ATCGTTGG	-0.161
AAGTATCA	-0.141
AAGATTAC	0.0222
ACCTGAGG	-0.171
GCGATAGA	-0.109
ATATAGCA	-0.253
ACACGCGG	0.192
GCTACACC	-0.12
CAAACCAA	-0.0195
ACATGTAG	0.0459
GCCTGGAA	-0.256
CAACACTG	-0.251
CGCTACCC	-0.0897
AAACTGCC	-0.0969
CGTTCAGA	-0.205
AGTACAAA	-0.111
CGGCGATA	0.335
CGATAACA	0.245
ATGATGCA	-0.223
ATTGCATA	-0.025
AACACGAG	-0.151
CCGCAGAG	-0.0375

Sequence	PBM E-score
AGCTAACC	-0.0803
ACTGATAT	-0.215
ACACAAAT	0.127
AAGCATGG	-0.147
CATACACG	-0.146
CTGCAGGA	-0.0759
CGAGCTCA	0.164
CAGGTAAG	-0.0893
AGGCGGTA	-0.0577
GTAAGCGA	-0.182
CCATAAAC	-0.0862
TCCGAGAA	0.421
GAATGACA	-0.176
AATAGCGT	-0.00358
GGGTGGCA	-0.0476
GGTCCCAC	0.0333
AGACGCGC	-0.0782
CGACCCGA	0.0126
AAGAATGT	-0.168
CCAGGCGG	0.17
AGGTCGAA	-0.234
ATTAAGGC	-0.0652
CACTTTAC	-0.0418
CTAATCAA	0.0158
CGTCTAAC	-0.00517

Sequence	PBM E-score
AGGACGCC	-0.0974
CAGCGAAA	-0.0902
ATGGGGTG	-0.146
GGTTACGA	-0.0858
GTGGCCTA	-0.135
CCCTTTCA	-0.143
GCTAATAC	0.082
CTCTTCCA	-0.0203
ACATTATA	-0.165
CACGGGGA	0.255
ATTACAAG	-0.101
TTGATAAA	0.0403
ATAACGGG	-0.0411
ATGAATCA	-0.127
GACAAGTC	-0.071
CCGTATCA	0.171
ATACCGGC	0.354
CTGTTTAA	-0.029
AATCGCAA	-0.0343
CCTTCGTA	-0.146
CTTTCGGC	0.239
CACATCTG	-0.0441
AGTACGGG	-0.0881
TAAGCTAA	-0.0954
GTCGCCAC	-0.23

Sequence	PBM E-score
AAGTAAAC	-0.00864
ATGGATAC	-0.157
AAACAAAG	0.0712
TCTGGTAA	-0.0791
CGATAGTC	-0.0611
CGTGGCAA	-0.154
TCATTTAA	-0.135
GTACCGAC	0.197
AGAACTCT	-0.277
AGGCACCG	0.0765
GAGAGGCA	0.00531
CCACACCA	-0.21
ATCGGCTA	0.101
TATAACGA	-0.17
CCCACCTA	-0.105
ACGAGTGC	-0.0431
ACTAAACC	0.0358
CCGTTGAA	0.0314
CAGAATCC	0.0232
CGCCACCA	-0.0848
ATGGTTAC	-0.246
GCGTAACC	-0.0718
CATATAGC	0.0763
AAGGGCAG	-0.309
ACAGTAAA	-0.0669

Sequence	PBM E-score
GGATTGGA	-0.0255
CGACTTAC	0.0558
GAGTGACC	-0.0085
GGCAATTA	-0.00272
AGTGCTCC	0.115
AACCGATT	0.174
CGAACCAC	0.119
ATGTATCA	-0.215
GAGTAATC	-0.0516
GTAAATCA	0.148
AAAATGTT	-0.221
GCTGGACC	-0.129
AGAATCAG	0.0154
CAGGCATA	-0.199
GATAGCAC	-0.0953
CGGAACAG	0.388
GAAGCCGC	0.219
TCCCACCA	-0.152
GACTGCTC	-0.0476
AAGTACGA	0.122
GGGACGGA	0.369
CACACTAA	-0.17
GACCGTGC	-0.102
GTGAGCGA	-0.134
AGGCTGAA	-0.219

Sequence	PBM E-score
CCGTCTCC	0.298
CAGGAGCG	-0.00543
AAGGGTGA	-0.152
ACTCGTAT	-0.237
AGAGACCC	-0.0819
CTGGGCTC	-0.202
ACTTAACT	0.00817
CTCGGGCC	0.175
CAATGGAC	-0.113
CCCAGACC	-0.154
CGAGTCCA	-0.144
GAGCGAAA	0.0988
ATTTAGCG	0.108
ACCACAAC	-0.0113
ACTGCATA	-0.075
CCGCCCAG	0.301
GACTGCTA	-0.277
GGGGCAAA	0.194
GCCGAAGA	0.216
ACTGCAAC	-0.179
GCCTAGCA	-0.245
CATCTAAA	-0.0637
AAATGCCT	-0.152
GACATGTA	0.0493
AATATCCT	-0.086

Sequence	PBM E-score
CCGGTCAG	0.268
ATCCGGTC	0.346
GTCCATAA	-0.245
ACTAGGTG	-0.117
GAAGTGAA	-0.0198
GTCCGCTA	0.244
AGCGCCCA	-0.248
ATTAGGTA	-0.247
GCGCCGCA	0.267
GCGCATAA	-0.0332
ATCTTACC	-0.00306
GCATAGGA	-0.0805
ATCTCCCA	0.0776
ACGTCTTA	-0.241
AGAATCTG	-0.0135
GCTAAAAA	-0.234
CACGCATA	-0.222
CAGAGTAC	-0.146
CGCTGCCG	0.0994
TAACTAAA	-0.155
GACGGGCC	0.13
CCGCGGCC	0.361
TGCCTAAA	-0.204
CAACGCTG	-0.0524
AGCGTTTA	-0.158

Sequence	PBM E-score
GCTTGGCC	0.103
CTAGAATC	-0.06
CTGTCACC	-0.12
CTTTAAAG	-0.389
CATGTCAG	-0.175
AGTGAGCC	-0.162
GATCAAAC	-0.115
AGTTGACG	0.0491
GAAGCCTA	0.0928
TCAGCCCA	-0.132
CATCACTC	-0.0512
ACACGAAC	-0.123
CGTTTCAC	0.0729
CACTAACA	-0.16
ATCGTCAT	-0.116
CCCGTACG	0.134
ACGACTGG	-0.0981
CCTGCCTC	-0.143
CCTTCAAC	-0.196
CGGGGCAA	0.184
AATTTCCT	0.0327
AGACTATA	-0.144
CAGGATCC	-0.0148
CACGGACG	0.22
CGCTTGCC	0.117

Sequence	PBM E-score
TTAGAGAA	-0.215
AGTAAACC	0.068
CGACGTCA	-0.0776
CAATTAAA	-0.0963
GGGAGGAC	0.0177
CGGACACA	0.276
ACCGAAGT	0.129
CCCTCAGA	-0.18
ATGCCTCC	0.0134
AATAGTCC	0.146
GAACCCCC	-0.0851
AAAGCTTA	-0.255
ACAACCAA	-0.191
GAGCATAC	-0.0791
CGAATTCC	0.28
AGTCCCAC	-0.105
ATGCAATA	-0.285
GCAACAAC	-0.0286
CGAAATAA	0.197
